Laboratory results taken from the supplement of paper PMC12340641.
Whole data set: some 1,000 compounds, median “relative growth in counter assay (no AraC = 100%, AraC + DMSO = 0%)” near -1.1, cut for the highest 2% near 20. This is one part of the list.

Test system: HEK293FT dCK*-only
Assay: relative growth in counter assay (no AraC = 100%, AraC + DMSO = 0%); higher = more growth rescue independent of IKZF1
Conditions: compound concentration: 5 uM; AraC concentration: 0.3 uM; overnight pretreatment + 4 days AraC
Description: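 Growth recovery screen of the molecular-glue-like (Specs) library. HEK293FT cells expressing a dCK*-IKZF1 fusion (primary) or dCK* alone (counter) were pretreated overnight with compound at 5 uM, then given 0.3 uM AraC for 4 days. Hoechst nuclei were counted by imaging. Primary: normalised to pomalidomide (100%) and DMSO (0%), mean of 2 replicates. Counter: normalised to no-AraC (100%) and AraC+DMSO (0%), single replicate.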

Compound | relative growth in counter assay [%]
CCCCCOC(=O)c1ccc(N2C(=O)c3ccc(Oc4ccc(N)cc4)cc3C2=O)cc1 | -8.41
CC(=O)N1CCC(c2csc(Nc3ccc(F)cn3)n2)CC1 | 4.68
Cc1cc(C)nc(NS(=O)(=O)c2ccc(-n3cccc3)cc2)n1 | -3.86
Cc1cnc(Nc2cccc(C3CN(C(=O)Cn4c(C(C)C)nc5ccccc54)CCO3)n2)s1 (configuration not stated) | -14.1
Cc1cccc(N2CC(C(=O)Nc3ccc(S(=O)(=O)Nc4ncccn4)cc3)CC2=O)c1C (configuration not stated) | 2.21
Cc1cc(NS(=O)(=O)c2ccc(NC(=O)C(C)Oc3ccc(F)cc3)cc2)nc(C)n1 (configuration not stated) | 0.64
NC1(C(=O)N2CCC(c3cccc(Nc4ncc(CC(F)(F)F)s4)n3)CC2)CC1 | -24.5
COc1ccc(CCC(=O)Nc2ccc(S(=O)(=O)Nc3nccc(C)n3)cc2)cc1 | -2.68
CCc1ccc(C(=O)Nc2ccc(S(=O)(=O)Nc3nc(C)cc(C)n3)cc2)o1 | -1.63
O=C(O)CCOCCOCCOCCOCCNc1cccc2c1C(=O)N(C1CCC(=O)NC1=O)C2=O (configuration not stated) | 1.09
CC(C)(C)C(=O)N1CCOC(c2cccc(Nc3ncc(Cc4ccccc4F)s3)n2)C1 (configuration not stated) | -6.81
Cc1cc(C)nc(NS(=O)(=O)c2ccc(NC(=O)c3ccccc3I)cc2)n1 | 1.67
O=C(C1COCCN1)N1CCC(c2cccc(Nc3ncc(-c4ccccc4)s3)n2)CC1 (configuration not stated) | -3.94
Cc1cnc(Nc2cccc(C3(CO)CCN(C(=O)C4CCCCC4)CC3)n2)s1 | -10.4
Cc1cnc(Nc2cccc(C3CN(C(=O)C(C)(C)C)CCO3)n2)s1 (configuration not stated) | -10.3
Cc1cc(C)nc(NS(=O)(=O)c2ccc(NC(=O)C3CC(=O)N(c4ccccc4)C3)cc2)n1 (configuration not stated) | 4.27
COc1ccc(CN(C(=O)CSc2nnc3c(n2)[nH]c2ccc(OC)cc23)c2ccc(F)cc2)cc1 | 17.3
Cc1cc(C)c(C(=O)Nc2ccc(S(=O)(=O)Nc3ncccn3)cc2)c(C)c1 | -5.77
Cc1cc(C)nc(NS(=O)(=O)c2ccc(NC(=O)CSc3nc4c(cc3C#N)CCCC4)cc2)n1 | -0.73
CC(=O)N1CCC(CCc2ccnc(Nc3nccs3)c2)CC1 | 9.32
Cc1cccc(C(=O)Nc2ccc(S(=O)(=O)Nc3nc(C)cc(C)n3)cc2)c1 | -3.41
Cc1cc(C)nc(NS(=O)(=O)c2ccc(NS(C)(=O)=O)cc2)n1 | -3.14
Cc1cnc(Nc2cccc(C3CN(C(=O)Cn4nnc5ccccc54)CCO3)n2)s1 (configuration not stated) | -3.81
Cc1cc(C)nc(NS(=O)(=O)c2ccc(NC(=O)NC3CCCCC3)cc2)n1 | -11.4
Cc1ccc(Oc2ccc3c(c2)C(=O)N(c2ccc(C(N)=O)cc2)C3=O)cc1C | 3.9

Compound | relative growth in counter assay [%]
Cc1cnc(Nc2cccc(C3CCN(C(=O)c4cccnc4)CC3)n2)s1 | -24.4
CC(=O)N1CCC(c2cccc(Nc3nc(C)cs3)n2)CC1 | -1.17
O=C(/C=C/c1ccco1)N1CCCC1c1csc(Nc2ccccn2)n1 (configuration not stated) | -4.52
CC(=O)N1CCCC1c1cccc(Nc2nc(C)cs2)n1 (configuration not stated) | -5.77
Cc1csc(Nc2cccc(C3CCN(C(=O)CN)CC3)n2)n1 | -14.7
Cn1c(SCC(=O)Nc2ccccn2)nc2ccccc21 | 0.85
Cc1cnc(Nc2cccc(C3CCN(C(=O)c4cccc5cccnc45)CC3)n2)s1 | 2.54
CC(=O)Oc1cccc(N2C(=O)c3ccc(Oc4ccc(N)cc4)cc3C2=O)c1 | -2.02
CNC(=O)[C@@H]1CCCC[C@@H]1C(=O)N1CCC(c2cccc(Nc3ncc(C)s3)n2)CC1 | -23.8
Cc1nn(C)c(C)c1/C=C/C(=O)N1CCC(c2cc3ccccc3c(Nc3nccs3)n2)CC1 | 13.6
Cc1ccnc(NS(=O)(=O)c2ccc([N+](=O)[O-])cc2)c1 | 14.4
Cc1cc(C)c(C(=O)Nc2ccc(S(=O)(=O)Nc3ccccn3)cc2)c(C)c1 | -4.58
Cc1cnc(NC(=O)CN2CCC(c3cccc(Nc4nc(C)c(C)s4)n3)CC2)s1 | 24.2
CC(=O)Nc1ccc(Oc2ccc3c(c2)C(=O)N(c2ccccc2C)C3=O)cc1 | 1.06
COC(=O)CCC(=O)Nc1ccc(S(=O)(=O)Nc2nc(C)cc(C)n2)cc1 | 0.66
CN[C@@H]1CCC[C@@H](n2cnc3c(N)nc(N)nc32)[C@@H]1O | 8.12
Cc1ccnc(NS(=O)(=O)c2ccc(N3C(=O)c4ccc(C(=O)O)cc4C3=O)cc2)n1 | 6.09
Cc1ccnc(NS(=O)(=O)c2ccc(NC(=O)CC34CC5CC(CC(C5)C3)C4)cc2)n1 | -2.13
O=C1c2ccc(Oc3ccc(NC(=O)C(F)(F)F)cc3)cc2C(=O)N1c1ccc(O)cc1 | -3.44
Cc1cc(NS(=O)(=O)c2ccc(NC(=O)COc3ccc(C)c(C)c3)cc2)nc(C)n1 | -19.5
Cc1ccnc(NS(=O)(=O)c2ccc(N3C(=O)C4C5C=CC(C5)C4C3=O)cc2)n1 (configuration not stated) | -2.2
Nc1cccc(Oc2ccc3c(c2)C(=O)N(CCO)C3=O)c1 | -0.05
Cc1ccnc(NS(=O)(=O)c2ccc(NC(=O)C(C)(C)C)cc2)n1 | 6.32
Cc1cc(C)nc(NS(=O)(=O)c2ccc(NC(=O)C(C)Oc3ccccc3)cc2)n1 (configuration not stated) | -1.9
O=C(O)CN1CCN(c2cccc3c2C(=O)N(C2CCC(=O)NC2=O)C3=O)CC1 (configuration not stated) | 4.29

Compound | relative growth in counter assay [%]
O=C(CO)N1CCC(c2cccc(Nc3ncc(-c4ccccc4)s3)n2)CC1 | -21.4
CC(=O)Nc1ccc(S(=O)(=O)Nc2ccc(S(=O)(=O)Nc3ncccn3)cc2)cc1 | -0.11
O=C(CCc1c[nH]c2ccccc12)N1CCCC1c1cccc(Nc2nccs2)n1 (configuration not stated) | -6.78
Cc1csc(Nc2cccc(C3CN(C(=O)CCC4CCCC4)CCO3)n2)n1 (configuration not stated) | 32.3
Cc1cc(C)nc(NS(=O)(=O)c2ccc(NC(=O)CCC(=O)O)cc2)n1 | -5.29
O=C(C1CCCCN1)N1CCC(c2cccc(Nc3ncc(-c4ccccc4)s3)n2)CC1 (configuration not stated) | -3.42
O=C(Nc1ccc(S(=O)(=O)Nc2ccccn2)cc1)c1ccco1 | 4.23
Cc1csc(Nc2cccc(C3CCCN3C(=O)c3n[nH]c4c3CCCCCC4)n2)n1 (configuration not stated) | -0.03
O=C(c1cccc2ncccc12)N1CCOC(c2cccc(Nc3nccs3)n2)C1 (configuration not stated) | -3.73
Cc1cc(NS(=O)(=O)c2ccc(NC(=O)CCc3ccccc3)cc2)nc(C)n1 | 0.94
Cc1cccc(OCC(=O)Nc2ccc(S(=O)(=O)Nc3nc(C)cc(C)n3)cc2)c1 | -12
O=C(COc1ccccc1)Nc1ccc(S(=O)(=O)Nc2ccccn2)cc1 | 2.12
COc1cc(NS(=O)(=O)c2ccc(N)cc2)nc(OC)n1 | -1.08
CCN(CC)c1ccc2cc(C(=O)Nc3ccc(S(=O)(=O)Nc4nc(C)cc(C)n4)cc3)c(=O)oc2c1 | -5.02
CCN1CC(C(=O)N2CCC(c3cccc(Nc4ncc(C)s4)n3)CC2)CC1=O (configuration not stated) | -1.29
CC(=O)Nc1ccc(S(=O)(=O)Nc2nccc(C)n2)cc1 | 1.1
Cc1ccnc(NS(=O)(=O)c2ccc(NC(=O)Cc3cccs3)cc2)n1 | -1.12
Cc1nc(Nc2cccc(C3CCCN3C(=O)CCCc3ccc(F)cc3)n2)sc1C (configuration not stated) | 3.86
O=C(Cc1ccc(F)cc1)N1CCC(c2cccc(Nc3nccs3)n2)CC1 | -25.1
CC(C)C(=O)Nc1ccc(S(=O)(=O)Nc2ccccn2)cc1 | -2.72
COc1cc(NS(=O)(=O)c2ccc(NC(=O)c3ccc(Br)cc3)cc2)nc(OC)n1 | 8.28
Cc1csc(Nc2cccc(C3CN(CC(=O)NCc4ccccn4)CCO3)n2)n1 (configuration not stated) | 5.68
Cc1cc(C)nc(NS(=O)(=O)c2ccc(NC(=O)/C=C/c3cccs3)cc2)n1 | 3.95
Cc1cnc(Nc2cccc(CC3CCN(CC(=O)N(C(C)C)C4CCCCC4)CC3)n2)s1 | -3.05
CCOc1cccc(C(=O)Nc2ccc(S(=O)(=O)Nc3nc(C)cc(C)n3)cc2)c1 | -0.87

Compound | relative growth in counter assay [%]
O=C(CSc1nc2cc(Cl)ccc2[nH]1)Nc1ccc(Br)cn1 | -6.16
Cc1ccccc1OCC(=O)Nc1ccc(S(=O)(=O)Nc2ccccn2)cc1 | 1
Cc1ccc(C)c(OCCCC(=O)Nc2ccc(S(=O)(=O)Nc3ncccn3)cc2)c1 | -2.63
CCOc1ccc(C(=O)Nc2ccc(S(=O)(=O)Nc3ncccn3)cc2)cc1OCC | 6.76
CC1=NN(CCC(=O)N2CCOC(c3cccc(Nc4nc(C)c(C)s4)n3)C2)CC1 (configuration not stated) | 15.8
NC(=O)CN1CCC(c2csc(Nc3ccc(F)cn3)n2)CC1 | 5.45
CC(=O)Nc1ccc(S(=O)(=O)Nc2ncccn2)cc1 | -1.98
Cc1ccnc(NS(=O)(=O)c2ccc(NC(=O)c3ccc(C)c(C)c3)cc2)n1 | -1.31
O=C(O)COCCOCCNc1cc2c(cc1F)C(=O)N(C1CCC(=O)NC1=O)C2=O (configuration not stated) | 0.82
Cc1cnc(Nc2cc(C3CCN(C(=O)C4CCCCN4C(=O)OC(C)(C)C)CC3)ccn2)s1 (configuration not stated) | 7.97
O=C(CC(c1ccccc1)c1ccccc1)Nc1ccc(S(=O)(=O)Nc2ncccn2)cc1 | -1.59
Cc1cnc(Nc2cccc(C3CN(C(=O)CCc4cccc(Cl)c4)CCO3)n2)s1 (configuration not stated) | -5.59
COc1ccc(Cl)cc1NC(=O)CSc1nnc2c(n1)[nH]c1ccc(C)cc12 | 5.28
Cc1nc(C)c(C(=O)N2CCC(c3cccc(Nc4ncc(C)s4)n3)CC2)o1 | -23.1
O=C(COc1ccccc1Cl)Nc1ccc(S(=O)(=O)Nc2ccccn2)cc1 | -2.13
CN(C)CC(=O)N1CCC(c2cccc(Nc3ncc(-c4ccccc4)s3)n2)CC1 | -7.73
Cc1ccccc1N1C(=O)c2ccc(Oc3ccc(N)cc3)cc2C1=O | 12.7
Cc1nc(Nc2cccc(C3CCCN3C(=O)c3ccc(=O)n(C)n3)n2)sc1C (configuration not stated) | -5.62
CN1CCN(CC(=O)N2CCC(c3cccc(Nc4ncc(-c5ccccc5)s4)n3)CC2)CC1 | -22.9
CCCCc1cnc(Nc2cccc(C3CCN(C(=O)[C@@H]4CCCCN4)CC3)n2)s1 | -13.9
COc1nccnc1NS(=O)(=O)c1ccc(NC(=S)NC(=O)/C=C/c2ccccc2)cc1 | -22.1
Cc1cc(C)c(OCC(=O)Nc2ccc(S(=O)(=O)Nc3cc(C)nc(C)n3)cc2)c(C)c1 | -1.48
